Experimental data from the supplement of paper PMC8728848.
The other results are listed elsewhere or left out.

Columns and labels:
Test in all cases: glycan array binding signal (z-score within array); higher = stronger binding
Conditions in all cases: glycan notation: IUPAC condensed, linker removed
[1] = biological target: Neu5Ac(a2-3)Gal(b1-4)GlcNAc(b1-2)Man(a1-3)[Neu5Ac(a2-6)Gal(b1-4)GlcNAc(b1-2)Man(a1-6)]Man(b1-4)GlcNAc(b1-4)GlcNAc
In short: (§1)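 Glycan array data came from 3228 arrays in the Consortium for Functional Glycomics database, and only arrays with an available protein sequence were kept. Glycan names were put into IUPAC-condensed notation, and columns mapping to the same glycan were averaged. The binding signal is a within-array Z-score, averaged across arrays of one protein sequence run at different concentrations or buffers and across linkers. A negative Z-score can be read as non-binding.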

[2] = biological target: Neu5Ac(a2-3)Gal(b1-4)GlcNAc(b1-2)[Neu5Ac(a2-3)Gal(b1-4)GlcNAc(b1-4)]Man(a1-3)[GlcNAc(b1-4)][Neu5Ac(a2-3)Gal(b1-4)GlcNAc(b1-2)[Neu5Ac(a2-3)Gal(b1-4)GlcNAc(b1-6)]Man(a1-6)]Man(b1-4)GlcNAc(b1-4)GlcNAc
In short: as §1

[3] = biological target: Neu5Ac(a2-3)Gal(b1-4)GlcNAc(b1-2)[Neu5Ac(a2-3)Gal(b1-4)GlcNAc(b1-4)]Man(a1-3)[GlcNAc(b1-4)][Neu5Ac(a2-3)Gal(b1-4)GlcNAc(b1-4)Man(a1-6)]Man(b1-4)GlcNAc(b1-4)GlcNAc
In short: as §1

[4] = biological target: Neu5Ac(a2-3)Gal(b1-4)GlcNAc(b1-2)[Neu5Ac(a2-3)Gal(b1-4)GlcNAc(b1-6)]Man(a1-6)[Neu5Ac(a2-3)Gal(b1-4)GlcNAc(b1-2)Man(a1-3)][GlcNAc(b1-4)]Man(b1-4)GlcNAc(b1-4)GlcNAc
In short: as §1

[5] = biological target: Neu5Ac(a2-3)Gal(b1-4)GlcNAc(b1-3)Gal
In short: as §1

[6] = biological target: Neu5Ac(a2-3)Gal(b1-4)GlcNAc(b1-3)Gal(b1-3)GlcNAc
In short: as §1

[7] = biological target: Neu5Ac(a2-3)Gal(b1-4)GlcNAc(b1-3)Gal(b1-4)GlcNAc
In short: as §1

[8] = biological target: Neu5Ac(a2-3)Gal(b1-4)GlcNAc(b1-3)Gal(b1-4)GlcNAc(b1-2)Man(a1-3)[Neu5Ac(a2-3)Gal(b1-4)GlcNAc(b1-3)Gal(b1-4)GlcNAc(b1-2)Man(a1-6)]Man(b1-4)GlcNAc(b1-4)GlcNAc
In short: as §1

[9] = biological target: Neu5Ac(a2-3)Gal(b1-4)GlcNAc(b1-3)Gal(b1-4)GlcNAc(b1-3)Gal(b1-4)GlcNAc
In short: as §1

[10] = biological target: Neu5Ac(a2-3)Gal(b1-4)GlcNAc(b1-3)Gal(b1-4)GlcNAc(b1-3)Gal(b1-4)GlcNAc(b1-2)Man(a1-3)[Neu5Ac(a2-3)Gal(b1-4)GlcNAc(b1-3)Gal(b1-4)GlcNAc(b1-3)Gal(b1-4)GlcNAc(b1-2)Man(a1-6)]GalNAc
In short: as §1

[11] = biological target: Neu5Ac(a2-3)Gal(b1-4)GlcNAc(b1-3)Gal(b1-4)GlcNAc(b1-3)GalNAc
In short: as §1

[12] = biological target: Neu5Ac(a2-3)Gal(b1-4)GlcNAc(b1-3)Gal(b1-4)GlcNAc(b1-3)[Neu5Ac(a2-3)Gal(b1-4)GlcNAc(b1-3)Gal(b1-4)GlcNAc(b1-6)]GalNAc
In short: as §1

[13] = biological target: Neu5Ac(a2-3)Gal(b1-4)GlcNAc(b1-3)Gal(b1-4)GlcNAc(b1-6)[Gal(b1-3)]GalNAc
In short: as §1

[14] = biological target: Neu5Ac(a2-3)Gal(b1-4)GlcNAc(b1-3)Gal(b1-4)[Fuc(a1-3)]GlcNAc
In short: as §1

[15] = biological target: Neu5Ac(a2-3)Gal(b1-4)GlcNAc(b1-3)GalNAc
In short: as §1

[16] = biological target: Neu5Ac(a2-3)Gal(b1-4)GlcNAc(b1-3)[Neu5Ac(a2-3)Gal(b1-4)GlcNAc(b1-6)]GalNAc
In short: as §1

[17] = biological target: Neu5Ac(a2-3)Gal(b1-4)GlcNAc(b1-6)GalNAc
In short: as §1

[18] = biological target: Neu5Ac(a2-3)Gal(b1-4)GlcNAc(b1-6)[Gal(b1-3)]GalNAc
In short: as §1

[19] = biological target: Neu5Ac(a2-3)Gal(b1-4)GlcNAc(b1-6)[Neu5Ac(a2-3)Gal(b1-3)]GalNAc
In short: as §1

[20] = biological target: Neu5Ac(a2-3)Gal(b1-4)GlcNAc6S
In short: as §1

[21] = biological target: Neu5Ac(a2-3)Gal(b1-4)[Fuc(a1-3)]GlcNAc
In short: as §1

[22] = biological target: Neu5Ac(a2-3)Gal(b1-4)[Fuc(a1-3)]GlcNAc(b1-2)Man
In short: as §1

[23] = biological target: Neu5Ac(a2-3)Gal(b1-4)[Fuc(a1-3)]GlcNAc(b1-3)Gal
In short: as §1

[24] = biological target: Neu5Ac(a2-3)Gal(b1-4)[Fuc(a1-3)]GlcNAc(b1-3)Gal(b1-4)GlcNAc
In short: as §1

[25] = biological target: Neu5Ac(a2-3)Gal(b1-4)[Fuc(a1-3)]GlcNAc(b1-3)Gal(b1-4)[Fuc(a1-3)]GlcNAc(b1-3)Gal(b1-4)[Fuc(a1-3)]GlcNAc
In short: as §1

[26] = biological target: Neu5Ac(a2-3)Gal(b1-4)[Fuc(a1-3)]GlcNAc(b1-3)GalNAc
In short: as §1

[27] = biological target: Neu5Ac(a2-3)Gal(b1-4)[Fuc(a1-3)]GlcNAc(b1-6)[Gal(b1-3)]GalNAc
In short: as §1

[28] = biological target: Neu5Ac(a2-3)Gal(b1-4)[Fuc(a1-3)]GlcNAc(b1-6)[Neu5Ac(a2-3)Gal(b1-3)]GalNAc
In short: as §1

[29] = biological target: Neu5Ac(a2-3)Gal(b1-4)[Fuc(a1-3)]GlcNAc6S
In short: as §1

[30] = biological target: Neu5Ac(a2-3)Gal6S(b1-4)GlcNAc
In short: as §1

[31] = biological target: Neu5Ac(a2-3)Gal6S(b1-4)[Fuc(a1-3)]GlcNAc
In short: as §1

Neu5Ac(a2-3)GalNAc = biological target: Neu5Ac(a2-3)GalNAc
In short: as §1

[32] = biological target: Neu5Ac(a2-3)GalNAc(b1-4)GlcNAc
In short: as §1

[33] = biological target: Neu5Ac(a2-3)[GalNAc(b1-4)]Gal(b1-4)Glc
In short: as §1

[34] = biological target: Neu5Ac(a2-3)[GalNAc(b1-4)]Gal(b1-4)GlcNAc
In short: as §1

[35] = biological target: Neu5Ac(a2-3)[GalNAc(b1-4)]Gal(b1-4)GlcNAc(b1-3)GalNAc
In short: as §1

[36] = biological target: Neu5Ac(a2-3)[Neu5Ac(a2-6)]GalNAc
In short: as §1

B1: AFL5 (Aspergillus fumigatus), Q4WB00 (protein)
chain: MDNFMEMTKKLGHQPELLRLRALDATYDDALEGKLVVAPLDMSEPGKKILDSGTADGTWLRNVRSKQSVPHDYYGSDVEGELFPKDPDGITYFAHSFKDPWPQQYLGFFDLVHIRGSLAGSAPEGPAPVIQNLTTLLKPGGWVQLMEMNAFSPPPNGPAMTDFAKMASEMFTGIGVGDFANNNKSMLEDAGLKNVQEKRVIVNLGKKAKPELHDQSIHGVTGPIVPLTSVARTVKSSFTGEQLDALPARVKEELETEGGQVEMIIAFGQKA
- glycan array binding signal (z-score) [1]: -0.363
- glycan array binding signal (z-score) [2]: -0.241
- glycan array binding signal (z-score) [3]: -0.417
- glycan array binding signal (z-score) [4]: -0.251
- glycan array binding signal (z-score) [5]: -0.44
- glycan array binding signal (z-score) [6]: -0.223
- glycan array binding signal (z-score) [7]: 0.372
- glycan array binding signal (z-score) [8]: -0.191
- glycan array binding signal (z-score) [9]: -0.053
- glycan array binding signal (z-score) [10]: 2.14
- glycan array binding signal (z-score) [11]: -0.218
- glycan array binding signal (z-score) [12]: 0.858
- glycan array binding signal (z-score) [13]: -0.326
- glycan array binding signal (z-score) [14]: 0.109
- glycan array binding signal (z-score) [15]: 0.859
- glycan array binding signal (z-score) [16]: -0.26
- glycan array binding signal (z-score) [17]: 0.018
- glycan array binding signal (z-score) [18]: 0.375
- glycan array binding signal (z-score) [19]: -0.74
- glycan array binding signal (z-score) [20]: 0.093
- glycan array binding signal (z-score) [21]: -0.395
- glycan array binding signal (z-score) [22]: -0.274
- glycan array binding signal (z-score) [23]: 0.18
- glycan array binding signal (z-score) [24]: -0.096
- glycan array binding signal (z-score) [25]: -0.363
- glycan array binding signal (z-score) [26]: 0.219
- glycan array binding signal (z-score) [27]: 0.716
- glycan array binding signal (z-score) [28]: 1.05
- glycan array binding signal (z-score) [29]: -0.283
- glycan array binding signal (z-score) [30]: -0.728
- glycan array binding signal (z-score) [31]: -0.331
- glycan array binding signal (z-score) (Neu5Ac(a2-3)GalNAc): 0.281
- glycan array binding signal (z-score) [32]: -0.268
- glycan array binding signal (z-score) [33]: -0.53
- glycan array binding signal (z-score) [34]: -0.407
- glycan array binding signal (z-score) [35]: 0.081
- glycan array binding signal (z-score) [36]: 0.264
